In PubChem BioAssay (NCI) one finds GI50 and TGI data, which are given here for 34 compounds.

For the assay, the system named is NCI-H322M lung. The experiment in a line: NCI tumour cell line growth inhibition, 48 h.

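Grown in 96-well plates, cells were treated for 48 hours with each compound at five concentrations. Insufficient inhibition: endpoint recorded as highest concentration tested. Abbreviation: GI50, concentration required for 50% inhibition of growth. TGI denotes the concentration required for complete inhibition of growth.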

For the compound `CCN1CCN(C(=O)[C@@]2(C)CC[C@]3(C)CC[C@]4(C)C(=CC(=O)[C@@H]5[C@@]6(C)CC[C@H](OC7C[C@@H](O)[C@@H](O)C(C)O7)C(C)(C)[C@@H]6CC[C@]54C)[C@@H]3C2)CC1` (stereo not given in full), the GI50 is 2.01 µM and the TGI is 7.59 µM. On to `Nc1c(C(=O)O)nnc2ccc(Cl)cc12`, for which the TGI is greater than 100 µM.

With `CC/C=C\C[C@H](O)C/C=C1/C(=O)C(Cl)=C[C@@H]1C/C=C\CCCC(=O)OC`, the GI50 is 2.02 µM and the TGI came out at 4.37 µM. For `COC[C@@H](N=CC(C)(C)C)C(C)C`, the TGI was greater than 100 µM.

`OC(CC1SCCCS1)c1ccccc1` (stereo not given) came in with a TGI greater than 100 µM. The same measure, in the same setting: for `COc1cccc(C2c3cc4c(cc3OC(N3CCCCC3)C2C)OCO4)c1O` (stereo not given) the value was 39.7 µM; for `CC1(C)CC(=O)C(C=NC(=S)c2ccccc2)=C(O)C1`, greater than 100 µM; for `COc1cccc(C(=O)Oc2ccc(OS(=O)(=O)c3ccc(C)cc3)cc2)c1C#N`, greater than 100 µM. On the same count and under the same terms, for `C=CCn1c(N)c(C#N)c(C#N)c1-c1ccccc1` the value was greater than 100 µM. Regarding `O=C1Nc2cccc(Cl)c2/C1=C\c1c(Cl)nc2n1CCS2`, the TGI is greater than 100 µM. For `COc1cc(C(=O)N2CCN(C=O)C2=S)cc(OC)c1OC`, the GI50 is 24.8 µM and the TGI amounted to 65.4 µM.

Take `Nc1ccc([N+](=O)[O-])cc1N=C/C=C/c1ccccc1`: the GI50 was 25.9 µM and the TGI is greater than 100 µM. On to `O=C1C2SC34c5c2c2ccccc2n5CCC3CCCN14` (stereo not given), for which the TGI is greater than 100 µM.

As for `C/C=C(\C)C(=O)O[C@H]1C=CC(=O)O[C@H]1CCC(=O)[C@H](C)O`, the GI50 is 19.1 µM and the TGI stood at 50.1 µM. `COc1cc(/C=C/C(=O)c2ccc(O)c(OC)c2)ccc1O` gave a TGI of 32.3 µM.

For the compound `CC1=NN(c2nc(N)nc(/C(C#N)=C\c3ccc([N+](=O)[O-])s3)n2)C(C)(C)C1`, the TGI was 57.2 µM. Take `C#CCOc1cccc(-c2ncc3cc(NC(=O)CCl)ccc3n2)c1`: the GI50 is 1.73 µM and the TGI was 3.14 µM. For `N#Cc1n[nH]n(-c2ccc(Br)cc2)c1=O`, the TGI is greater than 100 µM.

The compound `CC(C)(C)OC(=O)N(CCCCN(CCCNC(=O)C(F)(F)F)C(=O)OC(C)(C)C)CCCNC(=O)C(F)(F)F` displayed a TGI greater than 100 µM. For `COC(=O)COc1ccccc1/C=C1\N=C(c2ccccc2)N(c2cc(C(F)(F)F)ccc2Cl)C1=O`, the GI50 was greater than 100 µM and the TGI was greater than 100 µM. `CC1(C)C(C#N)C1C1=C(N2CCOCC2)[C@]2(C)C(OC(=O)c3ccccc3)CC[C@@H]2C1` (stereo not given in full) showed a TGI greater than 100 µM. Turning to `Brc1ccc2[nH]cc(-c3csc(-c4c[nH]c5ccccc45)n3)c2c1`, the TGI stood at 9.97 µM. On the same count and under the same terms, for `CC12C/C(=C\c3ccccc3)C(=O)C3C1CCCC32` the value was greater than 100 µM. Turning to `CNCc1ccccc1-c1csc([C@@H](C)Nc2nc(C)nc3cc(OC)c(OC)cc23)c1`, the GI50 was 1.41 µM and the TGI was 4.8 µM. For the compound `COc1cc(-c2oc(=O)ccc2C#Cc2ccccn2)cc(OC)c1OC`, the GI50 was greater than 23 µM and the TGI is greater than 100 µM. On to `O=C(Nc1ccc(Nc2ccncc2)cc1)c1ccc([N+](=O)[O-])cc1`, for which the GI50 was 14 µM and the TGI worked out at 46.8 µM.

On to `Cc1ccc(-n2cnc(C(=N)C#N)c2N)cc1`, for which the TGI was greater than 100 µM. In turn, `O=C(Nc1ccn(CCO)c(=O)n1)c1ccccc1` returned a TGI greater than 100 µM. On to `CN1CCN(C2CCN(C(=O)Nc3cc(Oc4ccc(NC(=O)C5(C(=O)Nc6ccc(F)cc6)CC5)c(F)c4)ccn3)CC2)CC1`, for which the TGI was greater than 10 µM. The same measure, in the same setting: for `CO/N=C(\C)c1ccc(Nc2nc3ccccc3c3occc23)cc1` the value was 29.6 µM; for `O=[N+]([O-])c1cccc(C2=NN(c3ccccc3)C[N+](c3ccc(Br)cc3)=N2)c1`, greater than 100 µM.

Compound `CC(=O)c1ccccc1NP(=O)(c1ccccc1)c1ccccc1` showed a TGI greater than 100 µM. On the same count and under the same terms, for `O=c1oc2ccc3ccccc3c2cc1-c1nc2ccccc2s1` the value was greater than 100 µM. On to `Cc1cc(Nc2ccc(NC(=O)c3ccc(Nc4ccnc5ccccc45)cc3)cc2)nc(N)n1`, for which the GI50 is 1.92 µM and the TGI amounted to 5.9 µM.
